Results published in article PMC4336329 (PLoS ONE, 2015).
The campaign covered roughly 310,000 compounds. About 14,000 (4.5%) showed an effect of 50% or more. The effect is printed as a negative number. The list shows a part of the results.

biological target: human ether-à-go-go-related gene (hERG) potassium channel (human, UniProt Q12809); assay: primary screen, population patch clamp on CHO cells stably expressing hERG
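Also: peak tail current of the secondary pulse compared with the same well before compound.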

human ether-à-go-go-related gene (hERG) potassium channel, sequence (Q12809 whole entry, looked up): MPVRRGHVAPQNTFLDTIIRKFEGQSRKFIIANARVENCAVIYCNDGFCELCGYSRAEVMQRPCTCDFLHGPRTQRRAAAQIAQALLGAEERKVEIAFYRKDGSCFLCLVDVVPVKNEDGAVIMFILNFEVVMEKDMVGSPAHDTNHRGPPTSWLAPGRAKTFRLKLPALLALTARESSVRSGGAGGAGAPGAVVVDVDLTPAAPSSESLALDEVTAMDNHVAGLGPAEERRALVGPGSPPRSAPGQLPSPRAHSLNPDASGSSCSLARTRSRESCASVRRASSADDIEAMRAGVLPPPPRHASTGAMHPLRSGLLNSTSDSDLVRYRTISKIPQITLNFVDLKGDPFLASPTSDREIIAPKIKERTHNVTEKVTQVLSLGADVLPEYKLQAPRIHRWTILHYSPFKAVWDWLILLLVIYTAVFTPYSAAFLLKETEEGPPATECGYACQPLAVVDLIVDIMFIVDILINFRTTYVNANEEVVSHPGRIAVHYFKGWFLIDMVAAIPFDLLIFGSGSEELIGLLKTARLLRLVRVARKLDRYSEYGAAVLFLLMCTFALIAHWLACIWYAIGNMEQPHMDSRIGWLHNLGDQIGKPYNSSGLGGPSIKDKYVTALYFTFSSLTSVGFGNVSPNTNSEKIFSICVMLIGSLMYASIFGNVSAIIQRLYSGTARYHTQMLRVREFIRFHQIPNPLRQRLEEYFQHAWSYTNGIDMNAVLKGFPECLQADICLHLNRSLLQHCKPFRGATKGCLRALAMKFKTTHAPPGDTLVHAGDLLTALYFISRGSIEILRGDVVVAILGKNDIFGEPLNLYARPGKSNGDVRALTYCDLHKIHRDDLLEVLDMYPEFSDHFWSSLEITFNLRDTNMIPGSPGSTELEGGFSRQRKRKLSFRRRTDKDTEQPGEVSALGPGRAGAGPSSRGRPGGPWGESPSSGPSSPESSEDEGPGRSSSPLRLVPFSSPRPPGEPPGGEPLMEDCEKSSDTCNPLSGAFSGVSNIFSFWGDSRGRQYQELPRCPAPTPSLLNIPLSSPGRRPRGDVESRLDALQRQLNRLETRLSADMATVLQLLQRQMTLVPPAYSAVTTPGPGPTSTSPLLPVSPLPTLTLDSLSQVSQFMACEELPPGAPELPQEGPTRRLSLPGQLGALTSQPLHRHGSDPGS

SMILES	hERG current change (%, negative = inhibition) at 10uM [%]
CCN1C(=O)c2cccc3c(NC(=O)c4ccc(S(=O)(=O)N5CCOCC5)cc4)ccc1c23	-2.38
S=c1[nH]nc(-c2ccccc2)n1/N=C/c1ccc(-c2ccccc2Cl)o1	25.4
Cc1ccc(CSCCNC(=O)CSCc2ccc([N+](=O)[O-])cc2)cc1	-71.4
CC(OC(=O)c1cc(=O)[nH]c2ccccc12)C(=O)NC1CCCCC1C (stereo not drawn)	5.83
O=C(NNS(=O)(=O)c1ccc(F)cc1)c1cc2ccccc2cc1O	12.6
Cc1ccc(-c2ccc(C(=O)O)o2)cc1Cl	15.7
O=C(NCC1CCCN(C(=O)c2cscn2)C1)c1ccccc1Cl (stereo not drawn)	13.3
COc1ccc(NC(=S)N(CCC(C)C)C2CCN(C(C)=O)CC2)cc1	18.9
Cc1cc([N+](=O)[O-])ccc1NC(=O)C1CCCO1 (stereo not drawn)	-15.7
COC(=O)c1nc(NC(=O)c2cc(OC)c(OC)c(OC)c2)n[nH]1	1.78
COc1ccc(OCCCC(=O)Nc2cc(S(=O)(=O)N3CCCCC3)ccc2OC)cc1	-0.647
COc1ccc(NC(=O)CN(C)C2CCS(=O)(=O)C2)cc1 (stereo not drawn)	16.5
CN(C)C1=NCCN1CCc1ccc(F)cc1	-9.03
O=C(c1ccc(F)cc1)N1CCCCC(Sc2nnnn2-c2ccccc2)C1=O (stereo not drawn)	-29.3
CCOc1ccc(CNc2nnnn2C)cc1OC	8.61
CC1(C)N=C(c2cccs2)C(C)(C)N1O	19.3
O=C(CCNC(=O)c1ccc(Cl)cc1)Nc1ccc(F)cc1F	13.1
CC(=O)O.O=C(NCC1CCCCN1)c1cc(OCC(F)(F)F)ccc1OCC(F)(F)F (stereo not drawn)	-49.4
CC(C)(C)c1ccc(NC(=O)c2ccccc2)c([N+](=O)[O-])c1	0.655
COc1ccc(OC)c(CNC(=O)c2cc(=O)[nH]c3ccc(S(=O)(=O)N4CCCC4)cc23)c1	14.3
CCOC(=O)C(CN1CCCC1)c1ccccc1 (stereo not drawn)	-5.11
CCOC(=O)C1Nc2ccccc2C2c3ccccc3CC12 (stereo not drawn)	-10.1

SMILES	hERG current change (%, negative = inhibition) at 10uM [%]
CCC(C)c1ccccc1N1CC(C(=O)NCCC2=CCCCC2)CC1=O (stereo not drawn)	8.97
CCC(C)[C@H](NC(=O)N1CCn2c1nc1ccccc12)C(=O)NCC1CCCO1 (stereo partly drawn)	-1.61
COc1ccc(CN2CCN(C(=O)C3CC(=O)N(C4CCCCCC4)C3)CC2)c(OC)c1OC (stereo not drawn)	0.00918
OCC1CCCN(C(=S)Nc2ccc(Oc3ccccc3)cc2)C1 (stereo not drawn)	-24.6
COC(=O)c1ccccc1NC(=S)NC(=O)c1ccc(C)cc1	-1.62
Cc1ccc(NC(=O)CN(C)S(=O)(=O)c2ccc3c(c2)c(=O)n(C)c(=O)n3C)cc1	13
COC(=O)C(C)NC(=O)C1CCCN1S(=O)(=O)c1cc(C)c(Cl)cc1C (stereo not drawn)	2.58
CC(=O)c1cccc(NC(=O)CCNC(=O)c2cccc(C)c2)c1	0.379
O=C(CCCCC(=O)NNC(=O)COc1ccccc1)NNC(=O)COc1ccccc1	-0.682
CN(C)CCCN(C(=O)c1ccc(S(=O)(=O)N2CCCC2)cc1)c1nc2ccc(Br)cc2s1.Cl	-47.9
O=C(CCN1C(=O)/C(=C/C=C/c2ccccc2)SC1=S)Nc1nc2ccccc2s1	18.3
Cc1ccn2c(=O)nc(SCC(=O)N3CCCCC3)nc2c1	-8.19
CCOC(=O)COc1cc(N2C(=O)CSCC2=O)c(Cl)cc1Cl	3.73
O=C(C1CCCN(c2ncnc3c2nc2n3CCCCC2)C1)N1CCN(c2ccc(Cl)cc2)CC1 (stereo not drawn)	-54.8
COC(CNC(=O)c1ccc(CS(=O)(=O)c2ccc(C)cc2)o1)OC	-10
COc1ccc([C@@H]2CC=C(C(=O)O)[C@H](c3ccc(F)cc3)N2S(=O)(=O)c2ccc(Cl)cc2)cc1	27.2
O=C(NCCc1ccc2c(c1)OCCO2)c1cccc(F)c1	5.29
COCCNC(=O)c1ccc2c3n(nc2c1)-c1ccc(Cl)cc1CO3	-22
COCC(=O)N(Cc1cc2ccc(C)cc2[nH]c1=O)c1ccc(OC)cc1	-6.22
Cc1cccc(Nc2c(F)c(F)c(F)c(F)c2C(=O)O)c1	26.8
Cc1occc1C(=O)NNC(=O)c1ccccc1[N+](=O)[O-]	16.6
O=C(Nc1cc(C(F)(F)F)ccc1N1CCOCC1)C1Cc2ccccc2CN1C(=O)c1ccco1 (stereo not drawn)	1.05

SMILES	hERG current change (%, negative = inhibition) at 10uM [%]
O=S(=O)(c1ccccc1)c1nc(-c2ccccc2)oc1NCCCN1CCOCC1	-43.9
O=C(Cn1c(=O)n(Cc2ccco2)c(=O)c2ccccc21)NCC1CCCO1 (stereo not drawn)	2.5
O=C1CN(C(=O)COC(=O)CNS(=O)(=O)/C=C/c2ccccc2)c2ccccc2N1	11.2
CC(C)OCCCNC(=O)CN1CCN(Cc2ccccc2Cl)C1=O	-1.69
CN(Cc1ccccc1)C(=O)COc1ccccc1	19.3
CC(=O)c1ccc(N2CCN(C(=O)c3noc4c3CSc3ccccc3-4)CC2)cc1	17.2
O=C(NCc1ccc(F)cc1)c1ccc(CS(=O)(=O)Cc2ccccc2F)o1	-23.4
Cc1ccc(NC(=O)CCC(=O)N2CCOCC2)nc1	13
CC1(C(=O)N/N=C/c2c(F)c(F)c(F)c(F)c2F)CC1(Cl)Cl (stereo not drawn)	6.83
Cc1ccc(S(=O)(=O)N2CCOCC2)cc1C(=O)N1c2ccccc2Sc2ccccc21	-4.39
Cc1ccc(C)c(N(C(=O)Cc2cccs2)C(C(=O)NC2CCCC2)c2ccc(C)o2)c1 (stereo not drawn)	8.63
CCNc1c2c(nc3ccccc13)CC(C)(C)CC2=O.O=C(O)C(=O)O	-69.9
O=C(O)C1CSC(c2ccc3c(c2)OCO3)N1 (stereo not drawn)	20.3
Cc1ccc(S(=O)(=O)N2CCC(C(=O)OCC(=O)N(C)C3CCS(=O)(=O)C3)CC2)cc1C (stereo not drawn)	-21.4
COc1cc(N2CCOCC2)ccc1/C=C1\C(=O)NC(=O)N(C2CCCCC2)C1=O	0.165
COc1ccc(OC)c(NC(=O)Nc2ccc3c(c2)CCC3)c1	10.7
COc1ccc(NC(=O)CSc2nnc(-c3ccncc3)n2CC2CCCO2)c(OC)c1 (stereo not drawn)	6.28
Cn1c(SCC(=O)Nc2cc(C(C)(C)C)nn2-c2ccccc2)nc2ccccc21	-29.9
CCCN(Cc1nnc(-c2ccccc2Cl)o1)C(=O)c1cc2ccccc2o1	-17
CCC1Oc2ccccc2N(CC(=O)NCCCN2CCC(C)CC2)C1=O (stereo not drawn)	-20.3
O=C1COc2ccc(S(=O)(=O)Nc3ccc(F)cc3)cc2N1	9.67
COc1cc(C(CCN2CCCC2)c2c(OC)cc(OC)c3c(C)cc(=O)oc23)cc(OC)c1OC (stereo not drawn)	-75.5

SMILES	hERG current change (%, negative = inhibition) at 10uM [%]
COC(=O)c1cccc(NC(=O)c2cccs2)c1C	10.8
COc1ccc(NC(=S)N2CCN(c3ccccn3)CC2)cc1OC	1.27
CCOC(=O)C1=C(c2ccccc2)O/C(=C(/C(=O)OC)C(F)(F)F)S1	-3.45
CCCn1c(SCC(=O)c2ccc3c(c2)OCCO3)nnc1-c1ccco1	8.28
CS(=O)(=O)N(CC(=O)N1CCOCC1)c1cccc(F)c1	23.4
Cc1cc(SCC(=O)NN=C2CCN(C(C)C)CC2)c(C)cc1Br	-69.4
COc1ccc([N+](=O)[O-])cc1NC(=O)CSCc1cc(C)cc(C)c1	13.1
CCCCn1c(=O)cc(O)c2ccccc21	12.7
CSCCCNC(=S)Nc1ccc(N2CCOCC2)cc1	27.7
CCOc1ccc(CCn2c(-c3ccco3)nc3ccccc3c2=O)cc1OCC	-18.1
O=Cc1ccc(OCC(=O)Nc2ccccc2-c2ccccc2)cc1	-13.7
O=C(O)c1cccnc1SC1CC(=O)N(CCc2ccccc2)C1=O (stereo not drawn)	6.2
CCCCn1c(-c2ccc(Br)cc2F)nc2c1c(=O)[nH]c(=O)n2CC(C)C	7.26
CC(C(=O)Nc1ccc(F)cc1Cl)N(C)CCOc1ccccc1 (stereo not drawn)	-10.5
Cc1ccc(Cl)cc1N1CCN(CC(=O)Nc2ccc(CN3CCCCC3)cc2)CC1.Cl	-71.1
COc1ccc(C(=O)c2cc(C(C)=O)c(Nc3ccccc3)s2)cc1	12.5
CCOC(=O)C1=C(C)NC(=O)NC1c1ccsc1 (stereo not drawn)	10.5
CN(CC(=O)Nc1sc2c(c1C#N)CCCCC2)Cc1nc2ccccc2c(=O)[nH]1	-4.73
CCC1(c2ccc(F)cc2)NC(=O)N(CC(=O)N2CCc3ccccc32)C1=O (stereo not drawn)	-21.5
CCCNC(=O)c1ccc2c(c1)ncn2-c1ccccc1OC	-60.3
Cc1nnc(NC(=O)C2CCCN(c3ncccn3)C2)s1 (stereo not drawn)	4.1
